Assay results taken from the supplement of paper PMC4723716.
± gives the uncertainty stated by the source. In all, about 9,900 compounds were measured (“viability index relative to DMSO control”: median about 1, lowest 2% from about 0.85 on). Some of the results follow.

Test system: Plasmodium falciparum NF54 stage V gametocytes
Assay: viability index relative to DMSO control (fraction); higher = less gametocyte killing
Conditions: 2.5 µM, incubation time: 72 h
Procedure, shortened: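 In 1,536-well plates, 10 µl of serum-free medium holding P. falciparum NF54 stage V gametocytes (0.75% gametocytemia, 1.25% hematocrit) received compound at 2.5 µM for 72 hr at 37°C in low oxygen. After one to two hours with 3 µl of 2.5 µM MitoTracker Red CMXRos containing 0.13% saponin, red particles of 20–70 µm2 were counted in a single field per well. Viability index is reported as the particle count over the plate mean of wells treated with solvent only.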

[1] = library set: Broad Institute DOS
[2] = library set: Broad Institute Blood Stage

Row | Structure (SMILES) | viability index [1] | viability index [2]
1 | CO[C@H]1CN(C)C(=O)c2cc(NC(=O)Nc3c(C)noc3C)ccc2OC[C@@H](C)NC[C@H]1C | 1 ± 0.058 | 
2 | CN1c2ccc(-c3ccc(F)cc3)cc2[C@@H]2[C@@H](CCN2C(=O)Cc2cccnc2)[C@H]1CO | 0.985 ± 0.07 | 
3 | COc1ccc(S(=O)(=O)Nc2ccc3c(c2)CC(=O)N([C@@H](C)CO)C[C@@H](C)[C@@H](CN(C)Cc2ccc(C(=O)Nc4ccccc4N)cc2)O3)cc1 | 0.844 ± 0.012 | 
4 | CCCN1[C@H](C(=O)N2CCOCC2)[C@@H](CO)[C@@H]2Cn3c(ccc(-c4ccccc4F)c3=O)[C@@H]21 | 1.037 ± 0.0065 | 
5 | CO[C@H](CN(C)S(=O)(=O)c1ccc(F)cc1)[C@@H](C)CN(Cc1ccccc1Cl)[C@@H](C)CO | 0.986 ± 0.083 | 
6 | O=C(C[C@H]1CC[C@@H]2[C@H](COC[C@H](O)CN2C(=O)c2ccc(F)cc2)O1)N1CCCCC1 | 1.1 ± 0.052 | 
7 | COc1ccc(-c2ccc([C@H]3[C@@H](CO)N4C(=O)CN(C(=O)Cc5ccccn5)C[C@@H]34)cc2)cc1 | 0.976 ± 0.052 | 
8 | CC(=O)N1[C@H](CNC(=O)CN(C)C)[C@H](c2ccc(C3=CCCCC3)cc2)[C@@H]1CO | 0.953 ± 0.015 | 
9 | CN(C)CC(=O)N1[C@H](C#N)[C@H](c2ccccc2-c2ccccc2F)[C@@H]1CO | 1.1 ± 0.066 | 
10 | CO[C@@H](CN(C)Cc1cc(F)ccc1F)[C@H](C)CN([C@H](C)CO)S(=O)(=O)c1ccc(C)cc1 | 0.987 ± 0.032 | 
11 | C[C@H](CO)N1C[C@H](C)[C@H](CN(C)S(=O)(=O)c2ccccc2)Oc2ccc(NC(=O)C3CC3)cc2C1=O | 0.919 ± 0.13 | 
12 | CCCNC(=O)N1C[C@@H](C)[C@H](OC)CN(C)C(=O)c2ccc(NC(=O)CC)cc2OC[C@@H]1C | 1.04 ± 0.049 | 
13 | COC(=O)C[C@H]1C[C@H]2c3cc(NC(=O)c4ccc5c(c4)OCO5)ccc3O[C@H]2[C@H](CO)O1 | 1.05 ± 0.048 | 
14 | CC(C)NC(=O)N(C)C[C@@H]1Oc2c(NS(=O)(=O)c3cccs3)cccc2C(=O)N([C@H](C)CO)C[C@H]1C | 0.987 ± 0.036 | 
15 | CC(C)[C@H]1COCn2nncc2CCCC(=O)N1 | 0.936 ± 0.06 | 
16 | CO[C@H](CN(C)Cc1ccc2c(c1)OCO2)[C@H](C)CN(C(=O)c1ccccc1)[C@@H](C)CO | 1.067 ± 0.0074 | 
17 | C[C@H](CO)N1C[C@H](C)[C@@H](CN(C)C(=O)Nc2ccc3c(c2)OCO3)OCc2ccccc2-c2c(n(C)c3ccccc23)C1=O | 1.019 ± 0.0059 | 
18 | C[C@H](O)C#Cc1ccc([C@@H]2[C@@H](CO)N3CCCCN(C(=O)c4ccc5c(c4)OCO5)C[C@@H]23)cc1 | 1.05 ± 0.027 | 
19 | CC(C)C#Cc1ccc([C@H]2[C@@H](CO)N3C(=O)CN(C(=O)c4ccc5c(c4)OCO5)C[C@H]23)cc1 | 1.067 ± 0.0022 | 
20 | COc1ccccc1S(=O)(=O)N(C)C[C@@H]1OCc2ccccc2-c2c(n(C)c3ccccc23)C(=O)N([C@H](C)CO)C[C@@H]1C |  | 0.965 ± 0.054
21 | CCN(C[C@@H]1[C@@H](c2ccc(C3=CCCCC3)cc2)[C@@H](CO)N1CC1CC1)C(C)=O | 0.944 ± 0.0088 | 
22 | C[C@@H]1CN([C@@H](C)CO)C(=O)c2cccc(NC(=O)Nc3ccccc3)c2O[C@@H]1CN(C)C(=O)Nc1ccc(F)cc1 |  | 0.727 ± 0.041
23 | Cc1noc(C)c1NC(=O)Nc1ccc2c(c1)C(=O)N([C@H](C)CO)C[C@H](C)[C@H](CN(C)S(=O)(=O)c1cccs1)OCCCC[C@@H](C)O2 | 1.07 ± 0.05 | 
24 | CCCNC(=O)N1CC2(C1)[C@@H](c1ccccc1)[C@@H](CO)N2C(=O)CC1CC1 | 1.04 ± 0.083 | 

Row | Structure (SMILES) | viability index [1] | viability index [2]
25 | COc1ccc(S(=O)(=O)N(C)C[C@H]2Oc3c(NC(=O)c4nc5ccccc5s4)cccc3C(=O)N([C@H](C)CO)C[C@H]2C)cc1 | 1.03 ± 0.022 | 
26 | COc1ccccc1-c1ccc([C@@H]2[C@@H](C#N)N[C@@H]2CO)cc1 | 1.07 ± 0.07 | 
27 | C[C@H](NC(=O)C[C@@H]1C=C[C@@H](NS(=O)(=O)c2cccc(F)c2)[C@@H](CO)O1)c1ccccc1 | 1.07 ± 0.04 | 
28 | COCC(=O)Nc1ccc2c(c1)[C@@H]1C[C@@H](CC(=O)N[C@H](C)c3ccccc3)O[C@@H](CO)[C@@H]1O2 | 1.01 ± 0.02 | 
29 | C[C@H](CO)N1C[C@H](C)[C@@H](CN(C)S(=O)(=O)c2ccccc2F)Oc2ncc(/C=C/c3ccccc3)cc2C1=O | 1.05 ± 0.049 | 
30 | CCCNC(=O)N1CC2(C1)[C@@H](c1ccccc1)[C@@H](CO)N2Cc1ccc(Cl)cc1 | 1.11 ± 0.015 | 
31 | C[C@H]1CN([C@@H](C)CO)C(=O)c2c(c3ccccc3n2C)-c2ccccc2CO[C@H]1CN(C)C(=O)NC1CCCCC1 | 1.03 ± 0.08 | 
32 | N#C[C@@H]1[C@@H](c2ccccc2C2=CCCC2)[C@H](CO)N1C(=O)NC1CCCCC1 | 1.08 ± 0.077 | 
33 | CCCNC(=O)N1[C@H](CO)[C@H](c2ccc(-c3ccc(C#N)cc3)cc2)[C@@H]1CNC | 1.06 ± 0.072 | 
34 | O=C(C[C@H]1CC[C@@H]2[C@H](COC[C@H](O)CN2Cc2ccc(C(F)(F)F)cc2)O1)N1CCc2ccccc2C1 | 0.846 ± 0.011 | 
35 | N#C[C@H]1[C@H](c2ccccc2C2=CCCC2)[C@H](CO)N1C(=O)NC1CCCCC1 | 0.986 ± 0.053 | 
36 | COc1ccc2c3c([C@@H](CO)N(C[C@]33CCN(Cc4ccccn4)CC3)C(=O)Nc3ccc(F)cc3)n(C)c2c1 | 1.05 ± 0.015 | 
37 | CCS(=O)(=O)Nc1ccc2c(c1)C(=O)N(C)C[C@@H](OC)[C@H](C)CN(CC1CCCCC1)[C@H](C)CO2 | 1.022 ± 0.0074 | 
38 | C/C=C/c1cccc(-c2nc(C(=O)N3CCCCC3)cc3c2[C@H](CCO)N(C(=O)NC(C)C)C3)c1 | 0.995 ± 0.021 | 
39 | COc1ccc2c3c([C@H](CO)N(C)C[C@]33CN(C3)S(=O)(=O)c3cccs3)n(C)c2c1 | 1.04 ± 0.075 | 
40 | O=C(NCc1ccc2c(c1)OCO2)[C@@H]1[C@@H](CO)[C@@H]2Cn3c(cccc3=O)[C@H]1N2Cc1cncnc1 | 1.07 ± 0.071 | 
41 | O=S(=O)(c1ccccc1)N1[C@@H]2CNc3ccccc3[C@@H]2[C@@H]1CO | 1.03 ± 0.053 | 
42 | CCCNC(=O)N1CC(=O)N2[C@@H](CO)[C@@H](c3ccc(C#CCC4CCCC4)cc3)[C@@H]2C1 | 1.02 ± 0.0068 | 
43 | COc1ccc(NC(=O)N(C)C[C@@H]2Oc3ccc(NC(=O)Nc4cccc5ccccc45)cc3CC(=O)N([C@H](C)CO)C[C@H]2C)cc1 | 0.993 ± 0.14 | 
44 | CO[C@H]1CN(C)C(=O)c2cc(NC(=O)C3CCOCC3)ccc2OC[C@H](C)NC[C@@H]1C | 0.972 ± 0.0054 | 
45 | C[C@@H](NC(=O)C[C@@H]1CC[C@@H]2[C@H](COC[C@H](O)CN2Cc2ccc(C(F)(F)F)cc2)O1)c1ccccc1 | 1.09 ± 0.067 | 
46 | C[C@H](CO)N1C[C@H](C)[C@@H](CN(C)S(=O)(=O)c2ccc([N+](=O)[O-])cc2)OCc2ccccc2-c2c(n(C)c3ccccc23)C1=O | 0.896 ± 0.046 | 
47 | OC[C@H]1[C@H](c2ccccc2)C2(CN(Cc3cccnc3)C2)N1Cc1ccncc1 | 0.9974 ± 0.0094 | 
48 | CO[C@H]1CN(C)C(=O)c2cc(NC(=O)NC(C)C)ccc2OC[C@H](C)N(Cc2ccccc2)C[C@@H]1C | 1.016 ± 0.0041 | 

Row | Structure (SMILES) | viability index [1] | viability index [2]
49 | O=C(C[C@@H]1CC[C@H]2[C@@H](COC[C@H](O)CN2CCC(F)(F)F)O1)NCc1ccc2c(c1)OCO2 | 1 ± 0.023 | 
50 | CC(C)NC(=O)N(C)C[C@@H]1Oc2ccc(NC(=O)Cc3ccccc3)cc2CC(=O)N([C@@H](C)CO)C[C@@H]1C | 0.995 ± 0.13 | 
51 | CO[C@H]1CC[C@@H]2CCOc3c(C#N)cccc3C(=O)N(C)CCCC(=O)N(C)C[C@@H]1O2 | 0.934 ± 0.11 | 
52 | C[C@@H]1CN([C@@H](C)CO)C(=O)c2cc(NC(=O)NC3CCCCC3)ccc2O[C@H]1CN(C)S(C)(=O)=O | 0.971 ± 0.089 | 
53 | O=C1CN(S(=O)(=O)Cc2ccccc2)C[C@@H]2[C@H](c3ccc(C#Cc4ccccc4)cc3)[C@H](CO)N12 | 0.929 ± 0.16 | 
54 | C[C@@H]1CN([C@@H](C)CO)C(=O)c2cc(NS(=O)(=O)c3cccs3)ccc2O[C@H]1CN(C)S(=O)(=O)c1ccc(Cl)cc1 | 0.953 ± 0.098 | 
55 | COCc1cn(CC[C@@H]2CC[C@H](NC(=O)Nc3c(C)noc3C)[C@@H](CO)O2)nn1 | 1.07 ± 0.097 | 
56 | COc1ccccc1CNC(=O)C[C@@H]1CC[C@@H]2[C@@H](COc3ccc(NC(C)=O)cc3C(=O)N2C)O1 | 0.959 ± 0.09 | 
57 | CCCNC(=O)[C@H]1[C@H](CO)[C@H]2Cn3c(ccc(/C=C/c4ccccc4)c3=O)[C@H]2N1CC1CC1 | 0.97 ± 0.017 | 
58 | O=C(C[C@H]1CC[C@H]2[C@@H](COC[C@@H](O)CN2C(=O)Nc2ccc(F)cc2)O1)NC1CCC1 | 1.05 ± 0.033 | 
59 | O=C(C[C@@H]1CC[C@H]2[C@@H](COC[C@H](O)CN2C(=O)Nc2cccc(F)c2)O1)NCCCN1CCOCC1 | 1.1 ± 0.041 | 
60 | O=C(C[C@H]1CC[C@H]2[C@@H](COC[C@H](O)CN2C(=O)c2cccnc2)O1)NCC1CC1 | 1.03 ± 0.081 | 
61 | COc1cccc(C(=O)Nc2ccc3c(c2)C(=O)N(C)[C@@H]2CC[C@H](CC(=O)N[C@@H](C)c4ccccc4)O[C@H]2CO3)c1 | 1.08 ± 0.21 | 
62 | C[C@@H]1CN([C@@H](C)CO)C(=O)CCCn2nncc2CO[C@@H]1CN(C)C(=O)Nc1cccc(Oc2ccccn2)c1 | 1.06 ± 0.02 | 
63 | C/C=C/c1ccc([C@@H]2[C@@H](CN(CC)C(C)=O)N(Cc3cccnc3)[C@H]2CO)cc1 | 1.03 ± 0.012 | 
64 | Cc1nn(C)cc1NC(=O)C[C@@H]1CC[C@@H]2[C@@H](COc3ccc(NC(=O)c4cccc(F)c4)cc3C(=O)N2C)O1 | 1.13 ± 0.051 | 
65 | O=C(Cc1cccnc1)N1CC(=O)N2[C@H](CO)[C@H](c3ccc(/C=C/c4ccccc4)cc3)[C@@H]2C1 | 1.05 ± 0.067 | 
66 | O=C(Nc1ccc2c(c1)[C@@H]1C[C@@H](CC(=O)N3CCOCC3)O[C@H](CO)[C@@H]1O2)Nc1ccccc1F | 1.05 ± 0.02 | 
67 | C[C@H]1CN([C@@H](C)CO)C(=O)c2c(c3ccccc3n2C)-c2ccccc2CO[C@H]1CN(C)C(=O)[C@@H](Cc1ccccc1)N(C)C | 0.992 ± 0.13 | 
68 | O=C(NC[C@@H]1[C@H](c2ccccc2)[C@@H](CO)N1Cc1cccnc1)c1ccccn1 | 0.966 ± 0.04 | 
69 | CCC(=O)N1[C@H](CO)[C@H](c2ccccc2-c2ccccc2)[C@@H]1C#N | 1.12 ± 0.15 | 
70 | COc1ccc2c3c([nH]c2c1)[C@@H](CO)N(Cc1cc(OC)cc(OC)c1)C[C@]31CN(C1)C(=O)Nc1c(C)noc1C | 0.974 ± 0.12 | 
